The experiment has as its system HLA-E*01:01, HLA-E*01:03 and Mamu-E. The experiment is described as follows: Binding capacity of norleucine fluorescent standard peptide. The note with it: norleucine vs methionine in position 2 of fluorescent standard peptide.

VXAPCTLLL: the Binding capacity entry was “maintaining the binding capacity of methionine”.

The values are drawn from article PMC7653511 (Journal of immunology (Baltimore, Md. : 1950), 2020).
